Data as given in patent US20250333508A1 (ZHEJIANG NANOMAB TECHNOLOGY CENTER, published 2025).
Numbering of substitutions follows the chain as printed.

T1: ICOS. His tag (UniProt Q9Y6W8 21-140, limits assumed)
T1 construct: Bought (ACRO Biosystems); not shown: His tag
T1 sequence (looked up): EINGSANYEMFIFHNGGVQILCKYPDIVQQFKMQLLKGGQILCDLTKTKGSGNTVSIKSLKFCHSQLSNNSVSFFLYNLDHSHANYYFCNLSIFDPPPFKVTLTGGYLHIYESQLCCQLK

T2: human CTLA-4 his tag antigen (human, UniProt P16410 36-161)
T2 construct: Bought (ACRO Biosystems); also called CTLA-4. his tag protein (human); not shown: His tag
T2 sequence (looked up): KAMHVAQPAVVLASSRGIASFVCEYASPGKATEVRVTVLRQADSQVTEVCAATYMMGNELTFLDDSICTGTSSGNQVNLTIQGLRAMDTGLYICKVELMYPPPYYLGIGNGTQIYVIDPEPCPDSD

B1: NB-27 (Fc fusion)
chain: EVQLVESGGGLAQPGGSLRLSCAASGSTLDPFVIGWFRQAPGKERETVACINRSRTSYADSVKGRFTISRDNAKNMVYLQMNSLKPEDTAVYYCAASPDKPFYTDQTMCNKHYYGYWTQGTQVTVSS[skipping human IgG4 Fc with S228P (EU numbers)]
B2: NB-57 (Fc fusion)
chain: B1 chain with P14S, A24V, A49S, S54N, T56A, S61G, N72T, P101A, K111I, T118A
B3: NB-783 (Fc fusion)
chain: QVQLVESGGGLAQSGGSLRLSCAVSGSTLDPFVIGWFRQAPGKERETVSCINRNRASYADGVKGRFTISRDTAKNMVYLQMNSLKPEDTAVYYCAASPDKAFYTDQTMCNIHYYGYWAQGTLVTVSS[skipping human IgG4 Fc with S228P (EU numbers)]
B4: NGS-12-z2 (Fc fusion)
chain: EVQLVESGGGLVQPGGSLRLSCAASGFSSDYYDIGWFRQDPGKEREMVSCIRSSGGSTKYADSVKGRFTISRDNSKNTVYLQMNSLRAEDTAVYYCGLAPISPVHAVCNQHYFGYWGQGTRVTVSS[skipping human IgG4 Fc with S228P (EU numbers)]
notes: Format in the assay not restated
B5: NGS-12-z3 (Fc fusion)
chain: B4 chain with D40A, G42E
notes: as for B4
B6: NGS-12-z4 (Fc fusion)
chain: B4 chain with G42E
notes: as for B4
B7: NGS-12-z5 (Fc fusion)
chain: B4 chain with G42E, R87E
notes: as for B4
B8: NGS-16-z1 (Fc fusion)
chain: EVQLVESGGGLVQPGGSLRLSCAASGGTLDYWSIGWFRQAPGKEREEVSCISGTGLRTNYADSVKGRFTISRDNSKNTVYLQMNSLRAEDTAVYYCTGKLLHPSLWSACANEYDLWGQGTQVTVSS[skipping human IgG4 Fc with S228P (EU numbers)]
notes: as for B4
B9: NGS-16-z3 (Fc fusion)
chain: B8 chain with A92G
notes: as for B4
B10: NGS-16-z4 (Fc fusion)
chain: B8 chain with Y80I, A92G
notes: as for B4
B11: NGS-16-z5 (Fc fusion)
chain: B8 chain with I70V, Y80I, A92G
notes: as for B4
B12: NGS-16-z6 (Fc fusion)
chain: B8 chain with I70V, T78S, Y80I, A92G
notes: as for B4
B13: NGS-16-z7 (Fc fusion)
chain: B8 chain with A23E
notes: as for B4
B14: NGS-16-z8 (Fc fusion)
chain: B8 chain with A23E, Y80I
notes: as for B4
B15: NGS-16-z9 (Fc fusion)
chain: B8 chain with A23E, A92G
notes: as for B4
B16: NGS-16-z10 (Fc fusion)
chain: B8 chain with A23E, Y80I, A92G
notes: as for B4
B17: NGS-16-z11 (Fc fusion)
chain: B8 chain with A23E, I70V, Y80I, A92G
notes: as for B4
B18: NB-27-z1 (Fc fusion)
chain: B1 chain with A12V, A49S, A73S, M76T, K85R, P86A
notes: as for B4
B19: NB-27-z2 (Fc fusion)
chain: B1 chain with A12V, A49S, A73S, K85R, P86A
notes: as for B4
B20: NB-27-z3 (Fc fusion)
chain: B1 chain with A12V, A49S, M76T, K85R, P86A
notes: as for B4
B21: NB-27-z6 (Fc fusion)
chain: B1 chain with A12V, M76T, K85R, P86A
notes: as for B4
B22: NB-27-z7 (Fc fusion)
chain: B1 chain with A12V, K85R, P86A
notes: as for B4
B23: NB-27-z10 (Fc fusion)
chain: B1 chain with A12V, E44G, A49S, A73S, M76T, K85R, P86A
notes: as for B4
B24: NB-879-z1 (Fc fusion)
chain: EVQLVESGGGLVQPGGSLRLSCAASGDTLESFAVGWFRQAPGKEREELSCIGRTGEFTDYPGSVKGRFTISRDNSKNTVYLQMNSLRAEDTAVYYCAAERLVFHLCSLSEYDYDTWGQGTQVTVSS[skipping human IgG4 Fc with S228P (EU numbers)]
notes: as for B4
B25: NB-879-z2 (Fc fusion)
chain: B24 chain with S75A
notes: as for B4
B26: NB-879-z3 (Fc fusion)
chain: B24 chain with S71T
notes: as for B4
B27: NB-879-z4 (Fc fusion)
chain: B24 chain with S49A
notes: as for B4
B28: NB-879-z5 (Fc fusion)
chain: B24 chain with S49A, S75A
notes: as for B4
B29: NB-879-z6 (Fc fusion)
chain: B24 chain with S49A, S71T
notes: as for B4
B30: NB-879-z7 (Fc fusion)
chain: B24 chain with S49A, S71T, S75A
notes: as for B4
B31: NB-879-z11 (Fc fusion)
chain: B24 chain with L48V, S49A
notes: as for B4
B32: NB-879-z12 (Fc fusion)
chain: B24 chain with L48V, S49A, S75A
notes: as for B4
B33: NB-879-z13 (Fc fusion)
chain: B24 chain with L48V, S49A, S71T
notes: as for B4
B34: NB-879-z14 (Fc fusion)
chain: B24 chain with S49A, S71T, Q82E
notes: as for B4
B35: NB-879-z15 (Fc fusion)
chain: B24 chain with A24S, S49A, S71T, N84V
notes: as for B4

Molecular target: T3, PD-1. his tag protein (UniProt Q15116 fragment, limits assumed)
T3 construct: Bought (ACRO Biosystems); not shown: His tag
T3 sequence (Q15116 25-167 limits assumed): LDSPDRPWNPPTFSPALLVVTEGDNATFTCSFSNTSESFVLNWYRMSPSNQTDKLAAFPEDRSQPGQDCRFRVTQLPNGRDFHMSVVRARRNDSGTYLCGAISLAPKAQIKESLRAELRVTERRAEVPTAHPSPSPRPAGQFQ
Test: ELISA, coated his-tagged protein

Row | Binder | binding result
1 | B1 | no binding (tested: OD450 < 0.3)
2 | B2 | no binding (tested: OD450 < 0.3)
3 | B3 | no binding (tested: OD450 < 0.3)

Molecular target: T1, ICOS. His tag
Test: ELISA, coated his-tagged protein

Row | Binder | binding result
4 | B1 | no binding (tested: OD450 < 0.3)
5 | B2 | no binding (tested: OD450 < 0.3)
6 | B3 | no binding (tested: OD450 < 0.3)

Molecular target: T4, CD28. His tag (UniProt P10747 19-152, limits assumed)
T4 construct: Bought (ACRO Biosystems); not shown: His tag
T4 sequence (P10747 19-152 limits assumed): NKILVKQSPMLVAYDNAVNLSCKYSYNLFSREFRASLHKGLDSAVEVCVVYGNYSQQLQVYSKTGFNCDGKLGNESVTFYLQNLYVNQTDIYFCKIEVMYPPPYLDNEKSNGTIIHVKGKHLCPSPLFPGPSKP
Test: ELISA, coated his-tagged protein

Row | Binder | binding result
7 | B1 | no binding (tested: OD450 < 0.3)
8 | B2 | no binding (tested: OD450 < 0.3)
9 | B3 | no binding (tested: OD450 < 0.3)

Molecular target: T5, murine CTLA-4. his tag protein (murine, UniProt P09793 36-161)
T5 construct: Bought (ACRO Biosystems); also called mouse CTLA-4; not shown: His tag
Test: ELISA, coated his-tagged protein

Row | Binder | binding result
10 | B1 | no binding (tested: OD450 < 0.3)
11 | B2 | no binding (tested: OD450 < 0.3)
12 | B3 | no binding (tested: OD450 < 0.3)

Molecular target: T2, human CTLA-4 his tag antigen
Test: SPR, Ab on protein A, CTLA-4.His in flow

Row | Binder | Kd [nM] | koff [s⁻¹] | kon [M⁻¹ s⁻¹]
13 | B4 | 1.8 | 0.00027 | 150000
14 | B5 | 1.68 | 0.00032 | 190000
15 | B6 | 1.65 | 0.00033 | 200000
16 | B7 | 1.16 | 0.00029 | 250000
17 | B8 | 3.75 | 0.00473 | 1.26e+06
18 | B9 | 2.82 | 0.00305 | 1.08e+06
19 | B10 | 0.61 | 0.00036 | 590000
20 | B11 | 0.466 | 0.00027 | 580000
21 | B12 | 0.476 | 0.0002 | 420000
22 | B13 | 4.86 | 0.00676 | 1.39e+06
23 | B14 | 0.533 | 0.00057 | 1.07e+06
24 | B15 | 3.98 | 0.00617 | 1.55e+06
25 | B16 | 0.602 | 0.00065 | 1.08e+06
26 | B17 | 0.429 | 0.00045 | 1.05e+06
27 | B18 | 1.14 | 0.000455 | 399000
28 | B19 | 0.943 | 0.000345 | 366000

Row | Binder | Kd [nM] | koff [s⁻¹] | kon [M⁻¹ s⁻¹]
29 | B20 | 1.12 | 0.000381 | 341000
30 | B21 | 1.31 | 0.000339 | 259000
31 | B22 | 1.17 | 0.000305 | 261000
32 | B23 | 1.42 | 0.000376 | 265000
33 | B24 | 17.6 | 0.00302 | 172000
34 | B25 | 18 | 0.00307 | 171000
35 | B26 | 18.2 | 0.00317 | 174000
36 | B27 | 17.1 | 0.00345 | 202000
37 | B28 | 16.9 | 0.00318 | 188000
38 | B29 | 20.7 | 0.0033 | 160000
39 | B30 | 19.2 | 0.00246 | 128000
40 | B31 | 34 | 0.00824 | 242000
41 | B32 | 35.6 | 0.00949 | 267000
42 | B33 | 51.9 | 0.00223 | 43000
43 | B34 | 17.3 | 0.00188 | 108000
44 | B35 | 18.4 | 0.00216 | 117000
